Data reported in paper PMC6212790.
The other results are listed elsewhere or left out. At the low end of the ranking, values are background and their order means little.

These sequences were tested against T1, GST-Rok (full length) (UniProt O34857) (assay: protein binding microarray). Conditions: Rok is a gene silencer of Bacillus subtilis; high values mean tight binding; most listed sequences are background and not binding sites; double strand, one strand shown.
T1 sequence: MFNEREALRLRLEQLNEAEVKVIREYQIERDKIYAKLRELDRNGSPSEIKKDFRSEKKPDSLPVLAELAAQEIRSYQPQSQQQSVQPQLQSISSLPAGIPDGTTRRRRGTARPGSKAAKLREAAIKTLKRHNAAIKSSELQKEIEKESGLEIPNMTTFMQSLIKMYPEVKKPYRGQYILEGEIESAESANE
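Also: rank score from −0.5 (least bound) to 0.5 (best bound).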

Sequence	binding signal [E-score]
GATTCTCA	0.18
AAAGCAGG	-0.183
AGGAGAAT	0.184
CTGGGCGC	-0.259
TAGACGGA	-0.348
AGCCCCTG	-0.31
CGACGATA	0.172
AAATTGAG	0.0835
GATTAAAA	0.0318
ACAACAGC	-0.0896
CCATCGCG	-0.000623
GTCCTTAA	0.0408
CGAAAACC	-0.133
AGCTTCTA	0.178
TGCCAGAA	-0.0731
AGTGCATG	0.0224
CTGACATC	-0.0155
ACCAAACG	0.0234
ACTGGGGG	-0.314
ATCTATAC	0.207
ATACGGAG	0.0487
GGACGAAC	-0.121
CTAAAATA	0.262
CTGCCAAG	-0.0519
ATTAAATG	0.0625

Sequence	binding signal [E-score]
GAGAAAGC	-0.0612
CAGACGGC	-0.0229
ACGATGAG	-0.00281
CACTACTG	-0.0214
ACCATAAA	0.114
GCCTTGCC	-0.443
GACCACCC	-0.299
CTCGCGCC	-0.266
CCATCGGG	-0.214
GCAGCCAC	-0.415
CACTCGGG	-0.226
AAACTGGG	-0.236
AATCAGAA	0.18
CCGAGGCG	-0.249
TGCACACA	0.0711
CCGCACCA	-0.082
ACAACTCC	-0.137
CAACTACA	0.18
GCTAATCC	-0.108
AGACTGGA	-0.123
GCCAAAGC	-0.357
ATGTCGGG	-0.205
CAGACACC	0.0269
AATTAGGA	-0.0566
ATTCCTCA	-0.0357

Sequence	binding signal [E-score]
CTTACAGA	0.0495
CTGGGGAA	-0.162
TACGGAGA	0.0328
AGAGCATA	-0.179
ATGCGGCA	0.0193
CATTCAGC	-0.0865
GGAGCAAC	-0.104
GCAGAGCA	-0.134
GCGACATA	0.0389
CAGCATGC	-0.093
CCCCCCTA	-0.35
ACTTACTG	0.207
CATAGTGA	0.0352
ATATAGAT	0.416
AAGTGTTC	0.00771
CTAGCAAA	0.164
ATATTTCG	0.221
GGTGCATA	0.155
AACACGGC	-0.0341
TAGCAAGA	0.0925
ACGACGCT	-0.158
AAGGTCCT	-0.271
CCGCCCCA	-0.353
GTCTATTA	0.11
CTGCATTA	0.29

Sequence	binding signal [E-score]
AGAATTGA	0.193
ATGCGCAT	0.087
AGGAACTA	0.291
CGTTCAAA	-0.001
AGTATACA	0.271
AGACTGCC	-0.22
AGATAGCT	0.104
AAACTAAA	0.324
ACTAGCAT	0.182
CGCCTTGA	-0.225
ATGAAAAC	0.0417
GCAAGAAC	-0.0916
ATCGTAAA	0.169
ACTATTAG	0.244
GTACGCAC	0.03
AAAGATAC	0.0513
CGTCATTA	-0.0222
CGGGCCTA	-0.309
GGAGGTAA	-0.0331
GCCCTGGA	-0.171
AAGATTGC	-0.137
CGACGCGC	-0.332
CGAGCTAA	0.0196
ATCAGCGC	-0.0134
CATTGTTC	0.00988

Sequence	binding signal [E-score]
ACGTTTTG	0.158
ATCTACAT	0.372
GCTCACAA	-0.0316
GCCAACCA	-0.162
GGACAGCA	0.029
ATCACAAT	0.232
ACCTAGAT	0.269
AAGTTATA	0.289
TCAGGACA	-0.136
AAAGTATG	0.239
ATGCCATA	0.0639
TGGTCACA	-0.0402
GCACACCA	-0.025
AGGCGTCG	-0.139
GCAAACAA	-0.152
AAGGAAAT	-0.0599
ACACAGAC	-0.123
CATACCGC	-0.0931
CAGGGAAA	-0.061
ATCAGGGA	-0.123
ATTATGGA	0.149
TCAAACAA	0.0792
GACTGCAA	-0.191
AGCCGGCT	-0.35
ACTTAGTG	0.138

Sequence	binding signal [E-score]
CGCATTGA	-0.147
GGCTAGGA	-0.193
AGCTTGCA	0.0118
TAGGCTGA	-0.0568
AGTAGGAC	0.0729
TCAGGTAA	0.0671
AGTACCTC	-0.00964
ATAGTCTC	0.0365
CTATAAAC	0.272
GTCAGGGA	-0.289
GAGGTATC	0.000396
AGCTTGAA	0.081
ACTATAGA	0.174
CTTCGAAC	-0.166
CCACCGGG	-0.454
AGCGAGAG	-0.154
AATCAGCG	-0.139
ACTTTTCC	-0.0636
GCTCGCAC	-0.218
AGTGACAA	0.0348
GTCGATCA	-0.188
GCCAGTGA	-0.255
CAAGGACG	-0.202
ACTGCCCT	-0.278
ACACTCTG	-0.0135

Sequence	binding signal [E-score]
CCTTTTCC	-0.314
ACGGCGCG	-0.182
AGTCCGAC	0.0674
CGCCCGCG	-0.365
CAAGTCCA	-0.0486
CCTGCCAG	-0.24
CAAGGTAG	0.274
ACTAATAT	0.385
CTAACGTC	-0.0418
CCATTGTA	0.201
TCTACACA	0.242
GCGGCGAA	-0.13
TCCGAAGA	-0.00926
CAATCGCA	-4.39e-05
AGCGACAC	0.0672
CAGACGTA	0.2
GCGATTCC	-0.0289
CCACCCCA	-0.347
AAAGCTGT	0.0902
AGTGGCTC	-0.0667
GGCAAACC	0.0188
AACGATGA	-0.054
ACGTTGAT	0.0705
TAGGGTAA	0.138
AAGCTGAG	-0.259

Sequence	binding signal [E-score]
CCCTAGGC	-0.155
TAAAGCTA	0.259
AACACAGG	-0.118
ATACTAGA	0.349
GGCTAGAC	-0.121
ATACGTAG	0.196
CTGAGTGC	-0.098
GTCGAAAA	0.19
GCGGAAAC	0.0663
ATGGTTTC	0.0467
AGTGGCCC	-0.326
CCACCTGC	-0.311
CAATTTAC	0.288
TACATGAA	0.0836
CGTTTTCA	-0.0478
TCCTAGAA	-0.0823
ACGATACT	0.174
ATACTCCC	-0.0284
GGAAATAC	0.101
TAGATATA	0.339
GCCGTCAC	-0.188
AAGCTTCG	-0.129
ACGGCGTG	-0.21
GAAGCGGA	-0.236
TACTCATA	0.192

Sequence	binding signal [E-score]
CCGGCGAG	-0.215
CAATATAC	0.34
ACGGCTAA	-0.205
CTGGGCAC	-0.242
CGCACGGC	-0.169
CTCAACCC	-0.161
GCCCGCGC	-0.345
AATCTTCA	0.078
AAGATGAC	0.0776
GAACTTCA	0.0379
ATCACTCC	-0.0127
AAGAGAGC	-0.115
AACACGCT	0.092
CCCGTGAC	-0.289
ACTGGTGC	0.00665
TACGCCTA	-0.0214
GGCATAAA	-0.00232
AGCAACCT	-0.121
TAGAAAAA	0.3
